Test results as given in paper PMC4336329 (PLoS ONE, 2015).
In all, about 310,000 compounds went through this assay and about 2,200 (0.71%) showed an effect of 50% or more. The effect is printed as a negative number. The list shows a part of the results.

Target: human ether-à-go-go-related gene (hERG) potassium channel (human, UniProt Q12809)
Assay: primary screen, population patch clamp on CHO cells stably expressing hERG

Sequence of human ether-à-go-go-related gene (hERG) potassium channel (Q12809 whole entry, looked up): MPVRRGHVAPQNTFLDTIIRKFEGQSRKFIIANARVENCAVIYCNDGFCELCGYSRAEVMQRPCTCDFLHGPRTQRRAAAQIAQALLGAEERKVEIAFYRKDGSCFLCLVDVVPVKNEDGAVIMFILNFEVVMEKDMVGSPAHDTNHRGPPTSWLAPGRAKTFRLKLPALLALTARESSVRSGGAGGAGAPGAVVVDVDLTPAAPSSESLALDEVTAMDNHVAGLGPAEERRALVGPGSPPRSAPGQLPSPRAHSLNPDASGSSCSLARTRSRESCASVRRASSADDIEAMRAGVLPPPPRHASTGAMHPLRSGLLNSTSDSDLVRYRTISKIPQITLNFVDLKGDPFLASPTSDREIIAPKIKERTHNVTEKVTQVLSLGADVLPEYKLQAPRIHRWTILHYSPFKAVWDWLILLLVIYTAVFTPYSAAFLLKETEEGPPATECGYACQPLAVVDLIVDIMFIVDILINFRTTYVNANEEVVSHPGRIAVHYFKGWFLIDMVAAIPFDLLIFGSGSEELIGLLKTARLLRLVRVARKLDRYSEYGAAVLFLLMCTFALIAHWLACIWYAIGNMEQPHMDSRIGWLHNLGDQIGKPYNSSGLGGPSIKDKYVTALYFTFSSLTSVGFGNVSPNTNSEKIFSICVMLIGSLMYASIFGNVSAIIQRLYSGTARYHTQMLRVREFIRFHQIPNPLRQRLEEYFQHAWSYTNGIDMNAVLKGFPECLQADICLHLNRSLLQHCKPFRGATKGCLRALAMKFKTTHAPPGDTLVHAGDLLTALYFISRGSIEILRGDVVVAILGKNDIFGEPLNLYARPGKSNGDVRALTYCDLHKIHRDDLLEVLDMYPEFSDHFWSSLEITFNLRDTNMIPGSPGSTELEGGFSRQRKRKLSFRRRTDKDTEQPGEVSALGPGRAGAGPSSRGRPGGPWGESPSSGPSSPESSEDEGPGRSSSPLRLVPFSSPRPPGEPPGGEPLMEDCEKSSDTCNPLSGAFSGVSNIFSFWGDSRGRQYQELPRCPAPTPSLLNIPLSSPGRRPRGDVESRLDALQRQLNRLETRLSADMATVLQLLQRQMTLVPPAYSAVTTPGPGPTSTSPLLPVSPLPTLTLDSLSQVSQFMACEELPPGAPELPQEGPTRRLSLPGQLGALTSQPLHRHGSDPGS

Structure (SMILES) | hERG current change (%, negative = inhibition) at 1uM
COc1ccccc1C1C(C(N)=O)=C(C)Nc2nc(-c3ccc(Cl)cc3)nn21 (stereo not drawn) | 1.88%
COc1ccc(NC2=C3CCCC=C3N(c3ccc(OC)cc3)C2=O)cc1 | 9.41%
COc1ccccc1NC(=O)c1ccc(N2CC3CC(C2)c2cccc(=O)n2C3)c(NC(=O)c2cccnc2)c1 (stereo not drawn) | 8.07%
O=c1c2c(nc3cc(-c4cccc(Cl)c4)[nH]n13)CCCC2 | 19.6%
CN(c1ccc(OCC(=O)N2CCN(c3ccc(F)cc3)CC2)cc1)S(=O)(=O)c1cccs1 | -26.4%
O=C(Nc1cc(C(F)(F)F)ccc1F)C1CCC1 | 2.54%
Cn1cc(-c2nnnn2-c2ccccc2)c(=O)c2ccccc21 | 1.73%
Cn1c(CCC(=O)Nc2ccccc2F)nnc1SCC(=O)Nc1ccccc1Cl | 9.27%
COc1ccc(CCNC(=O)c2cc(-c3cc(Cl)cc(Cl)c3)oc2C)cc1 | -10.6%
COc1ccc2c(=O)c(-c3cnn(-c4ccccc4)c3)c(C)oc2c1 | 6.28%
O=C(Nc1cccc(S(=O)(=O)N2CCOCC2)c1)c1cn(-c2ccccc2)nc1-c1ccccc1 | 4.82%
O=C(N/N=C/c1cccnc1)C1CC1(c1ccccc1)c1ccccc1 (stereo not drawn) | 3.24%
C=CCNC(=O)c1ccc(C2SCC(=O)N2Cc2ccccc2)cc1 (stereo not drawn) | 6.29%
CN(Cc1ccccc1NCC(=O)Nc1ccccc1C#N)C1CCCCC1 | 17.3%
CCn1c(=N)n(CC(O)COc2cccc(C)c2)c2ccccc21.Cl (stereo not drawn) | -16%
Cc1cc(C(=O)N2CCc3ccccc32)n(-c2ccccc2)n1 | 8.48%
Cn1c(CN2CCCCC2)nc2cc(NC(=O)c3ccccc3Cl)ccc21 | 11.2%
CCN(CC)C(=O)c1ccc(C(=O)Nc2ccc(F)cc2)cc1 | 10.3%
CCN(CC)S(=O)(=O)c1cccc(C(=O)N[C@H](C(=O)NCc2ccccc2F)C(C)C)c1 | 8.99%
COC(=O)c1ccc(S(=O)(=O)N2CCC(O)CC2)n1C | 3.92%
Cc1ccc(CNc2oc(-c3ccco3)nc2S(=O)(=O)c2ccccc2)cc1 | -13.5%
Cc1noc(C)c1C(=O)N1CCN(c2ccccc2O)CC1 | 16%

Structure (SMILES) | hERG current change (%, negative = inhibition) at 1uM
Cc1ccc(N(C(=O)C2CCC(=O)N2)C2(C(=O)NC3CCCCC3)CCCCC2)cc1 (stereo not drawn) | 2.06%
CCc1ccc(Oc2coc3cc(O)ccc3c2=O)cc1 | 12.4%
CC(NC(=O)c1cccs1)c1nnc(SCc2ccc(Cl)cc2Cl)n1C (stereo not drawn) | -9.16%
O=C(NCc1ccc(Cl)cc1)c1n[nH]c([N+](=O)[O-])c1Cl | 0.933%
COc1ccc(Cn2c(=S)[nH]c3cc(C(=O)NCc4cccnc4)ccc3c2=O)cc1 | 13.5%
O=C1CCN1C1(C(=O)NC2CCCCC2)CCCC1 | 12.1%
CC(=O)c1c(N2CCN(c3cccc(Cl)c3)CC2)nc(=S)n(-c2ccccc2)c1C | 5.5%
COc1ccc(OC)c(C2C(C(C)=O)=C(O)C(=O)N2c2ccc(O)cc2)c1 (stereo not drawn) | 14.9%
O=C1C(=O)c2cccc3cccc1c23 | 8.07%
NC(=O)C1(N2CCCCC2)CCN(Cc2ccc(F)cc2)CC1 | 7.31%
CC(C)c1ccc(NS(=O)(=O)c2ccc3c(c2)NC(=O)CO3)cc1 | 5.53%
COc1cccc(/C=N/Nc2ccc(Cl)nn2)c1OC | 12.2%
Cc1ccc(S(=O)(=O)N2[C@@H](c3cccc(Cl)c3)C(C(=O)O)=CC[C@H]2c2cccc(Cl)c2)cc1 | 14.2%
Cc1ccc(CN2CCN(/N=C/c3ccc(C)s3)CC2)cc1 | -1.18%
CC(C)(C)NC(=S)N/N=C\c1ccc(-c2ccc([N+](=O)[O-])cc2)o1 | 13.3%
COc1cc([N+](=O)[O-])c2ncsc2c1 | 18.4%
CC(NC(=O)C1(S(=O)(=O)c2ccc(Cl)cc2)CC1)c1ccccc1 (stereo not drawn) | 2.26%
Cc1ccccc1OCCC(=O)Nc1ccccc1C(=O)NC1CC1 | 11.4%
CCn1c(SC(=O)NC2CCCCC2)nnc1-c1cccs1 | 15.1%
Cc1nnc(SCC(=O)Nc2ccc(N3CCOCC3)cc2)n1-c1ccccc1 | -3.88%
CCN(CC)C(=O)c1ccc2c(=O)n(Cc3ccc4c(c3)OCO4)c(=S)[nH]c2c1 | 9.77%
COc1ccc(C(=O)Nc2ccccc2N2CCOCC2)cc1Br | 6.16%

Structure (SMILES) | hERG current change (%, negative = inhibition) at 1uM
[O-][N+]12CCCCC1CCCC2CO (stereo not drawn) | 12.1%
Cc1ccc(C)c(NC(=O)COc2cccc3c2CCN(Cc2ccccc2C)C3=O)c1 | 19.1%
Cc1ccc(S(=O)(=O)N/N=C\c2cn(CC(N)=O)c3ccccc23)cc1 | 8.61%
O=C(CSc1ccccc1)Nc1ccc(C(=O)Nc2cccc(O)c2)cc1 | 9.45%
COc1ccc(CN(Cc2cc3cc(C)ccc3[nH]c2=O)C(=O)N(C)C)cc1 | 8.1%
CCn1c(SCC(=O)NC2CCCCC2)nnc1C(C)NC(=O)c1ccccc1F (stereo not drawn) | 7.11%
CC(C)(C)OC(=O)N[C@@H](C(=O)OC(C)(C)C)c1ccc2c(c1)OCO2 | 13.5%
CC(=O)c1cccc(NC(=O)c2cc(-c3ccco3)on2)c1 | 6.53%
CCOc1ccccc1-n1nnnc1SCC(=O)NCC1(N2CCOCC2)CCCCC1 | -1.12%
CC(c1ccc(C(C)(C)C)cc1)S(=O)CC(O)CO (stereo not drawn) | 0.188%
O=C(/C=C/c1ncc(C(F)(F)F)cc1Cl)OCc1ccccc1 | 6%
S=c1[nH]c2cnccc2n1Cc1ccccc1 | 3.98%
CCCCN1C(=O)/C(=C/C=C2/C=Cc3ccccc3N2CC)SC1=S | -0.626%
O=C(CCC(=O)N1CCCCC1)Nc1nnc(C2CCCCC2)s1 | 15.1%
COCCNC(=O)C(c1ccco1)N(C(=O)Cn1nnc2ccccc21)c1cccc(C)c1C (stereo not drawn) | 4.58%
O=C(c1cc(-c2ccccn2)nc2ccc(Cl)cc12)N1CCN(CCc2ccccc2)CC1 | 8.51%
CCN=C(Nc1ccc2c(c1)OCO2)SC1CC(=O)N(c2ccccc2F)C1=O (stereo not drawn) | -3.86%
Cc1cc(C(=O)Nc2ccc3ccccc3c2)oc1C | -38.6%
CN1/C(=C/C(=O)c2nc(S(C)(=O)=O)ncc2Cl)C(C)(C)c2ccccc21 | 4.68%
NC(=O)C[C@@H]1NC(=O)CNC(=O)c2cc([N+](=O)[O-])cc(I)c2NCCC(C(N)=O)NC1=O (stereo partly drawn) | 7.79%
O=C(Cc1ccccc1Cl)NC1(O)C(=O)c2ccccc2C1=O | 17%
O=C(NNC(=O)c1cc(-c2ccc(Cl)cc2)nc2ccccc12)c1csc(N2CCOCC2)n1 | -1.57%

Structure (SMILES) | hERG current change (%, negative = inhibition) at 1uM
Cc1cccc(OCc2n[nH]c(=S)n2C2CCCCC2)c1 | 17.7%
CC(=O)Nc1ccc(CN2CCN(CCC(C)C)C(CCO)C2)cc1 (stereo not drawn) | 13.7%
O=[N+]([O-])c1ccc2c(c1)C(O)n1nc(-c3ccc(Cl)cc3Cl)nc1S2 (stereo not drawn) | 12.4%
Cc1ccc(S(=O)(=O)N(Cc2cc3ccccc3[nH]c2=O)c2cccc(C)c2)cc1 | 6.03%
Cc1ccc2cc(CCNC(=O)CCCc3ccccc3)c(=O)[nH]c2c1C | 11.6%
O=C(c1ccc(F)c(S(=O)(=O)N2CCOCC2)c1)N1CCc2ccccc21 | 8.33%
O=C(CS(=O)(=O)c1ccc2ccccc2c1)Nc1ccccc1Cl | 12.4%
NS(=O)(=O)c1ccc(CNS(=O)(=O)c2ccc(Cl)nc2)cc1 | 4.83%
CC(=O)Nc1ccc(OC(=O)c2cccnc2)cc1 | 10.4%
COc1ccc(CCC(=O)N/N=C/c2ccc3c(c2)OCO3)cc1 | 10.6%
CCn1nc(NC(C)=O)c2cc3ccc(C)cc3nc21 | 18.6%
COc1ccccc1-c1nc(N)n[nH]1 | 7.08%
O=C(COC(=O)Cc1ccccc1)Nc1nnc(-c2ccccc2)o1 | -1.14%
CN(C)C(CNC(=O)c1cc(S(=O)(=O)N(C)Cc2ccccc2)ccc1Cl)c1ccco1 (stereo not drawn) | 5.45%
O=C(COC(=O)C(c1ccccc1)c1ccccc1)NCc1ccco1 | 6.22%
CCN1CCN(CC(=O)Nc2ccc(C(C)=O)cc2)CC1.Cl | 7.68%
CN1CCC2(CC1)N=C(c1ccc(F)cc1)C(=S)N2C(=O)c1ccccc1 | 7.76%
COc1cccc(NC(=O)COC(=O)c2c3c(nc4ccccc24)CCC(C)C3)c1 (stereo not drawn) | -14.7%
CCOc1ccc(OCc2ccc(C(=O)OCc3ccccn3)o2)cc1 | 4.26%
CSc1ccc(C(=O)N2CCC(n3nccc3NC(=O)C3CC3)CC2)cc1 | -24.3%
CCN1CCN(C(=O)c2ccc(-c3nc4ccccc4s3)s2)CC1 | -6.33%
